Data taken from PubChem BioAssay AID1159614 (National Center for Advancing Translational Sciences (NCATS), 2016).
Screen size: about 45,000 compounds; about 65 (0.1%) were called active. The call rests on the fitted dose curve; in most records, active means well fitted activation curve with a large enough effect; inconclusive means small, poorly fitted or top-dose-only effect; inactive means no such curve, though single readings can be large or run the other way. This is one part of the list.

target: Galactocerebrosidase (Homo sapiens) (UniProt P54803); assay: A Novel Cell-Based Assay to Identify Small Molecules for B -Galactocerebrosidase; details: 145M-Twi-hGALC-G270D cells (Twitcher mouse brain line with human GALC G270D), HMU-beta-Gal fluorescence, 48 h; series mostly up to 57.5 µM; activation: at the top concentration; further: 0% is about no effect; nearly all actives have a fitted effect of over 65% in size
Sequence of UniProt P54803 (P54803 whole entry, looked up): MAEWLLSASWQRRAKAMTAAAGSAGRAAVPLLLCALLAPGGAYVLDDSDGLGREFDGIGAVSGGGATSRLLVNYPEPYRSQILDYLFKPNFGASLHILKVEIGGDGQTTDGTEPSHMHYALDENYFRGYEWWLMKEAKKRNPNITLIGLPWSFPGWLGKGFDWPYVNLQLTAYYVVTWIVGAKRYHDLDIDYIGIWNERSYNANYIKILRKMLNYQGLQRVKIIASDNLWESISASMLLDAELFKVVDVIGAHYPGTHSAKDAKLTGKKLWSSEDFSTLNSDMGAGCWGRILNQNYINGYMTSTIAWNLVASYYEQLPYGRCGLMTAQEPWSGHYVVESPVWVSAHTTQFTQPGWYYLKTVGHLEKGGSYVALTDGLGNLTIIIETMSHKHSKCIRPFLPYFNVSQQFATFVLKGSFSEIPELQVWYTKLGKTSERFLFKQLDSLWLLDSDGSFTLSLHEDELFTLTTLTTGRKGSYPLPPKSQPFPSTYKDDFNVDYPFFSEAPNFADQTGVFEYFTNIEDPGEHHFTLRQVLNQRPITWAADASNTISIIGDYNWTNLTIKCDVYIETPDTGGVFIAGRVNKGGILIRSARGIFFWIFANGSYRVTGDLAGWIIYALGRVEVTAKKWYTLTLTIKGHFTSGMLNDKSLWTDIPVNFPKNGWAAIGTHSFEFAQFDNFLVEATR
In short: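 Live 145M-Twi cells (Twitcher mouse brain-derived, GALC-null) stably expressing human GALC-G270D, with a wild-type GALC line, were compound-treated. Residual GALC activity was then read as fluorescence from 0.1 mM final HMU-β-gal at pH 5.2; higher signal means activation.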

activation, inactive:
CC(C)(C)OC(=O)N1CCC(c2c(C(=O)NCc3ccccc3)cnn2-c2ccccc2)CC1 -15.6%
CCN1CCC[C@H]1CNC(=O)c1c(O)c(Cl)cc(Cl)c1OC -9.6%
CCc1ccc(NC(=O)CSc2nc3c(sc4ccccc43)c(=O)n2CCCOC)cc1 -12.1%
Cc1ccc(CNC(=O)c2cnc(N3CCCCC3)c3ccccc23)cc1 -3.84%
CCOC(=O)CNc1nc2ccccc2n2c(C)nnc12 -15.3%
O=C(c1ccc2c(c1)CCN2S(=O)(=O)c1ccccc1)N1CCN(c2cccc(Cl)c2)CC1 -3.74%
COc1ccc(NC(=O)CN(C)S(=O)(=O)c2ccc3c(c2)CCC(=O)N3)c(OC)c1 -17%
COc1ccc(OC)c(NC(=O)Cn2c(=O)n(CC3CCCO3)c(=O)c3cc(OC)c(OC)cc32)c1 (centres undefined) -5.94%
CCOc1ccccc1CNC(=O)CN1C(=O)CSc2ccc(S(=O)(=O)N3CCOCC3)cc21 -6.09%
O=[N+]([O-])c1ccc(S(=O)(=O)NCc2nc3cccnc3n2Cc2ccccc2Cl)cc1 -10.9%
Cc1cccc(C(=O)N2CCc3cc(CNC(=O)c4ccc(Br)o4)ccc32)c1 -17.9%
CC(C)(C)CC(=O)OCC(=O)[C@@]1(O)CC[C@H]2[C@@H]3CCC4=CC(=O)C=C[C@]4(C)[C@H]3[C@@H](O)C[C@@]21C -4.17%
Cc1ccc(C)c(OCCn2cc(C(=O)c3cccs3)c3ccccc32)c1 -7.91%
Cc1c(C(=O)OCC2CCCCC2)[nH]c2c1C(=O)CC(c1ccc(F)cc1)C2 (centres undefined) -14.9%
COc1ccc(C)cc1NC(=O)Cn1c(=O)nc(-c2ccccc2F)c2cc(Cl)ccc21 -13.6%
COC(=O)c1cc(NC(=O)C2CCCN(S(=O)(=O)c3c(C)n[nH]c3C)C2)cc(C(=O)OC)c1 (centres undefined) -2.71%
O=c1nc2c(-c3ccc(F)cc3Cl)n[nH]n2c2ccccc12 -16.1%
CCOC(=O)c1c(C)[nH]c(CCC(=O)Nc2c(Cl)cc(OC)cc2OC)c1C -6.75%
N#Cc1cccc(Nc2ncnc3c2cnn3-c2cccc(Cl)c2)c1 -12.2%
Cc1ccc(Cl)cc1-n1ncc2c(NC3CCCCC3)ncnc21 -19.7%
Cc1cccc2sc(N3CCN(C(=O)CS(=O)(=O)c4ccc(F)cc4)CC3)nc12 -11%
CCc1ccccc1NC(=O)CN(c1cccc(C)c1C)S(C)(=O)=O -1.03%
CCOC(=O)C1CCCN(S(=O)(=O)c2ccc3c(c2)CCN3C(=O)CC)C1 (centres undefined) -14.8%
O=C(CSc1nncn2c1cc1occc12)Nc1ccccc1C(F)(F)F -12.2%
COc1ccc(CNC(=O)Cn2c(=O)nc(-c3ccccc3F)c3cc(Cl)ccc32)cc1OC -5.22%
CCCc1nc2nc(C)c(NS(=O)(=O)c3ccc(F)cc3)c(=O)n2[nH]1 -21.9%
Cc1cc(C(=O)N2CCN(c3ccc(F)cc3)CC2)c2c(C)nn(-c3cccc(Cl)c3C)c2n1 -12.1%
CCc1ccc(S(=O)(=O)c2cnc3ccc(OC)cc3c2N2CCCC(C)C2)cc1 (centres undefined) -0.105%
CCOC(=O)c1ccc(NC(=O)C(CC)Sc2nnc3c4ccccc4n(C)c3n2)cc1 (centres undefined) -10.5%
Cc1ccc(C)c(NC(=O)Cn2nnc(C(=O)NCCc3ccccc3)c2N)c1 -14.6%
COC(=O)c1cccc(Nc2c(-c3ccc(OC)cc3)nc3nc[nH]n23)c1 -18.7%
CCC1=Nc2cc(C(=O)NCc3ccccc3Cl)ccc2Sc2ccc(C)cc21 -15.5%
Cc1cc(C)c(NC(=O)Cn2c(=O)n(Cc3ccc4c(c3)OCO4)c(=O)c3ccccc32)c(C)c1 4.28%
CC[C@@H]([C@H](C)O)n1ncn(-c2ccc(N3CCN(c4ccc(OC[C@@H]5CO[C@@](Cn6cncn6)(c6ccc(F)cc6F)C5)cc4)CC3)cc2)c1=O -6.93%
COc1ccc(-n2c(=O)c3c(C)c(C)sc3n(CC(=O)NCc3ccc(C)cc3)c2=O)c(OC)c1 -3.96%
O=C(NCc1ccc(F)cc1)C1CCCN(c2ncnc3onc(-c4ccc(F)cc4)c23)C1 (centres undefined) -1.51%
CCOc1ccccc1CNC(=O)c1ccc(-c2nc(CSc3ccc(C)cc3)c(C)o2)cc1 -13.3%
O=C(CSc1nc2c(sc3ccccc32)c(=O)n1CCCC(=O)NC1CCCC1)Nc1ccc(F)cc1 -9.08%
CS(=O)(=O)c1oc(-c2ccc(F)cc2)nc1S(=O)(=O)c1ccc(Cl)cc1 -10.5%
O=C(CSc1cn(CCNC(=O)c2ccccc2F)c2ccccc12)Nc1ccccc1F 13.5%
COc1ccccc1OC(=O)Oc1ccccc1OC -12.9%
Cc1c(NC(=O)CC(C)C)cccc1-c1nc2cccnc2s1 5.23%
COc1cccc(-n2c(SCC(=O)Nc3cccc(Cl)c3)nc3c(oc4ccccc43)c2=O)c1 4%
COc1ccc(/C=C\C(=O)NC2CC(=O)N(c3ccc(F)cc3)C2)cc1OC (centres undefined) -4.87%
CCc1ccc(NCc2cc3ccc(OC)cc3n(CC(=O)Nc3ccc(C(C)C)cc3)c2=O)cc1 -8.01%
Cc1ccc(Nc2c(-c3ccsc3)nc3cccc(C)n23)cc1 -6.89%
COc1ccc(Cl)cc1NC(=O)CSC1=Nc2ccccc2C2=NC(CC(=O)NC3CCCCC3)C(=O)N12 (centres undefined) -18.9%
CC(=O)Nc1ccc(C(=O)O)cc1 -10.4%
CCOC(=O)CNC(=O)c1ccc(-c2nn(C)c(=O)c3ccccc23)cc1 -4.43%
Cc1ccc(NC(=O)Cn2nnc(-c3nc(-c4ccncc4)no3)c2N)c(C)c1 -7.47%
COc1ccccc1NC(=O)C1=C(C)Nc2nc(SCc3ccc(Cl)cc3)nn2C1c1ccccc1Cl (centres undefined) -6.22%
CC(NC(=O)C1CCN(C(=O)c2ccc(-n3ccc4ccccc43)s2)CC1)c1ccccc1 (centres undefined) -12.2%
Cc1ccc(NC(=O)c2ccc3oc(=O)c(S(=O)(=O)c4ccccc4)cc3c2)cc1C -27.4%
COc1cc(C2NC(=O)N(C)C3=C2C(=O)N(c2cccc(Cl)c2)C3)ccc1O (centres undefined) -13.2%
CCOC(=O)c1c(NC(C)=O)c2c3c(sc2n1Cc1ccc(Cl)cc1)CCCC3 -7.63%
CCOc1ccc(OC(=O)c2cn(-c3cccc(OC)c3)c(=O)c3ccccc23)cc1 -2.38%
CCOC(=O)C1CCN(C(=O)CN2c3ccc(C(C)C)cc3-c3ccccc3S2(=O)=O)CC1 -4.02%
CC1CCN(C(=O)c2cc3c(=O)n(C)c4ccccc4c3s2)CC1 -7.16%
CC1CCCCN1CCCNC(=O)c1[nH]c2ccccc2c1Sc1ccc(Cl)cc1 (centres undefined) -4.57%
